Reference: the RNAGym collection of RNA variant scans (doi:10.1093/nar/gkz1192)
Read counts are not given, so values of variants with three or more changes are uncertain.

B1: CPEB3 Ribozyme (parent)
chain: UAACAGGGGGCCACAGCAGAAGCGUUCACGUCGCAGCCCCUGUCAGAUUCUGGUGAAUCUGCGAAUUCUGCUGUAUAUCUC

Variants of: B1
Assay: self-cleavage, relative activity (ratio to wild type); higher = more cleavage; in vitro, sequencing
Summary of the method: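 Relative activity was defined as the cleaved/total read fraction for a variant divided by the same fraction for the unmutated ribozyme. CPEB3 self-cleaving ribozyme libraries were made by rounds of error-prone PCR, barcoded, and transcribed in vitro with T7 RNA polymerase for 5 hours at 37°C, and cleavage ran through transcription plus a 15 min DNase I step before EDTA. Illumina sequencing of template-switched reverse transcripts gave the reads, and DNA sequencing mapped the barcodes. Averages come from three batches, using variants with at least 5 reads.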

Row | Variant | self-cleavage
1 | C23A U26C U43C A45G A57U C62U | 0.04
2 | C23A U31A A64G | 0.11
3 | C23A U31C A35U U51A U54C A56G U60A | 0.08
4 | C23A U31C U41G U66C U67A | 0.09
5 | C23A U41A A57G U76C U78C | 0.05
6 | C23A U41C A47C U76C | 0.19
7 | C23A U41C U67A U69C U72C | 0
8 | C23A U49C A65G A75G | 0.04
9 | C23A U49C G55U A56C U60C U74A A77U | 0.07
10 | C23A U54C A57G U60C U66C U67G U78C | 0.04
11 | C23A U69A U72C | 0.05
12 | C23A U69C U72C | 0.56
13 | C23G A35G A57U U72C C79A | 0.27
14 | C23G A35G C38A C39G U76C A77C | 0.04
15 | C23G A35U U43A U48C U49C A77U | 0.06
16 | C23G C34G G42A A57G U72C | 0.04
17 | C23G C39A U80C | 0.08
18 | C23G C50A A56U | 0.09
19 | C23G C59G U69A U72C | 0.07
20 | C23G G53U U60A | 0.28
21 | C23G U25A A75G | 0.18
22 | C23G U26A A47G U72A | 0.14
23 | C23G U26A G52A | 0.09
24 | C23G U31C U67C A77G | 0.11

Row | Variant | self-cleavage
25 | C23G U43C G46A U51C U54C A65G U66C | 0.02
26 | C23U A28G U31A | 0.19
27 | C23U A28G U31C U43A U49C | 0.29
28 | C23U A28G U54A A57G | 0.06
29 | C23U A28G U67A U80C | 0.1
30 | C23U A35G U76C | 0.97
31 | C23U A35U U41C U67A | 0.09
32 | C23U A45C U58A | 0.17
33 | C23U A47G A56C U67A U69A U78A U80A | 0.09
34 | C23U C29U U67C | 0.11
35 | C23U C37U U58C U72C | 0.04
36 | C23U C38A G70U | 0.07
37 | C23U C39A U41C U49G U54C U60C | 0.07
38 | C23U C40U U41A G61A | 0.19
39 | C23U C44U A57G | 0.07
40 | C23U C50G U69A | 0.06
41 | C23U G24A A45G | 0.19
42 | C23U G24A U25C C27A G63U | 0.27
43 | C23U G30U A35U A45G U67A | 0.08
44 | C23U G33A U41A A47G U60G A64U | 0.08
45 | C23U G42U G52A U76A | 0.5
46 | C23U U25A U60C U74C | 0.04
47 | C23U U25C G52C | 0.21
48 | C23U U25C U48C U51C U67C U69A G70U | 0.04

Row | Variant | self-cleavage
49 | C23U U26A A47G A57G A64G U72C U80C | 0.04
50 | C23U U26A A56G U78C | 0.06
51 | C23U U26A U49C U72C | 0.13
52 | C23U U26C A45U U49G U69A | 0.07
53 | C23U U26C A65G U67C A75G | 0.08
54 | C23U U26C U31C U49C U78A | 0.37
55 | C23U U26C U43A U69G | 0.03
56 | C23U U31C G42A U49C U51A U80C | 0.08
57 | C23U U41C U58A U76C | 0.09
58 | C23U U41C U78C | 0.16
59 | C23U U41G A65G | 0.06
60 | C23U U43A C50A | 0.14
61 | C23U U43C U48C | 0.41
62 | C23U U48C U69C U72A U74C | 0.09
63 | C23U U49A U67A U69C | 0.06
64 | C23U U49C U69C | 0.1
65 | C23U U49G U67C | 0.12
66 | C23U U51A A77G | 0.08
67 | C23U U51A A77U | 0.15
68 | C23U U51C U69C | 0.42
69 | C23U U54A U72C U76C | 0.2
70 | C23U U54C U66C | 0.34
71 | C23U U66C U69A U74C | 0.06
72 | G24A A28G A35G A47G A64G U72C | 0.12

Row | Variant | self-cleavage
73 | G24A A28G A65G U74A | 0.14
74 | G24A A28G U41C A45G U67A A75G | 0.05
75 | G24A A28G U43A A45U U60C | 0.33
76 | G24A A28U G61A | 0.13
77 | G24A A28U U72C | 0.07
78 | G24A A35G U41C A57U A64G U72C | 0.05
79 | G24A A35G U51A | 0.47
80 | G24A A35G U78C C79U | 0.46
81 | G24A A35U G55U A57G A64G C71U | 0.04
82 | G24A A35U U54A | 0.1
83 | G24A A45G A65G | 0.51
84 | G24A A45G U54C A64U U72G | 0.07
85 | G24A A45U U54C | 0.15
86 | G24A A45U U58A A77G | 0.09
87 | G24A A45U U76C U78C | 0.11
88 | G24A A47G A64G U72C | 0.1
89 | G24A A47G U49A U78A | 0.42
90 | G24A A77G U78C | 0.13
91 | G24A C27A A65G U69C U72C | 0.05
92 | G24A C29G U31C A45G U66C A77G | 0.08
93 | G24A C34G G55A | 0.27
94 | G24A C40U A47G A64G U72C | 0.07
95 | G24A G36U G70C A75G | 0.08
96 | G24A G42A A56G | 0.29

Row | Variant | self-cleavage
97 | G24A U25C U41A U60A A64G U74G | 0.12
98 | G24A U25C U43A U69C | 0.07
99 | G24A U26A A28G | 0.18
100 | G24A U26A C29G A56G U78A | 0.04
101 | G24A U26A U41G G53A | 0.23
102 | G24A U26C A35G | 0.4
103 | G24A U26C A35G U66C | 0.22
104 | G24A U26C A35U U43C | 0.29
105 | G24A U26C G61C | 0.35
106 | G24A U31A U67C | 0.06
107 | G24A U41C A47G | 0.42
108 | G24A U43C A56G A75G | 0.09
109 | G24A U48C A56G | 0.23
110 | G24A U49C U80A | 0.05
111 | G24A U51C U60C U74A | 0.09
112 | G24A U54C A75G | 0.09
113 | G24A U54C U72A | 0.06
114 | G24A U74A U80C | 0.38
115 | G24A U74G C79A | 0.3
116 | G24C G53U U54A | 0.29
117 | G24C G61A U67C C81U | 0.12
118 | G24C G73U U78C | 0.21
119 | G24C U31A A45G U51C | 0.21
120 | G24C U41A U51C U60C A77G | 0.05

Row | Variant | self-cleavage
121 | G24C U41A U58C U80C | 0.11
122 | G24C U41C A45C G52C C71U | 0.11
123 | G24C U43C A56G U67C | 0.2
124 | G24C U49A U66C U72A | 0.15
125 | G24C U58A G63A A64G U76C U80A | 0.1
126 | G24C U58A U80C | 0.45
127 | G24C U69C A75G U78A | 0.09
128 | G24U A28G C38G A47U | 0.13
129 | G24U C29A A57G | 0.15
130 | G24U G30U U60C | 0.1
131 | G24U G33A A77U | 0.06
132 | G24U U25A U26G U41A U49C U80C | 0.23
133 | G24U U26A U43A A56G U58G U69C | 0.2
134 | G24U U41A A47G U67A | 0.21
135 | G24U U41A U48C | 0.07
136 | G24U U41A U49A U66C | 0.22
137 | G24U U41C A57C U69C | 0.15
138 | G24U U41C U43A U58C U60C U66C U67C | 0.14
139 | G24U U43C U54A | 0.2
140 | G24U U43G U69C U74C | 0.07
141 | G24U U54A U72A A77G | 0.16
142 | G24U U58C U66C U67G | 0.16
143 | U25A A28C C40A U43A U66C U69C | 0.06
144 | U25A A28G A64G | 0.45

Row | Variant | self-cleavage
145 | U25A A28G G30A | 0.24
146 | U25A A28G U80C | 0.42
147 | U25A A28U U41C U66C | 0.2
148 | U25A A35C U49C U78A | 0.05
149 | U25A A35G G42C A45U A47C | 0.15
150 | U25A A35U U54C U78C | 0.09
151 | U25A A45C U54C A56U U74A | 0.37
152 | U25A A45C U69A | 0.11
153 | U25A A45G G46C C68U | 0.34
154 | U25A A45G U66C U76A A77U | 0.06
155 | U25A A45G U72A | 0.2
156 | U25A A45G U78C | 0.07
157 | U25A A45U A56G | 0.09
158 | U25A A45U A57G A77G | 0.16
159 | U25A A45U U72A | 0.16
160 | U25A A47G U48C U66C U72C | 0.18
161 | U25A A47G U48C U78A | 0.05
162 | U25A A57G U67C | 0.12
163 | U25A C27G U41C U78C | 0.09
164 | U25A C29A U43C U76A U78A | 0.03
165 | U25A C32A U43A U51A U69C | 0.22
166 | U25A C32G U43C A57G C59A U74A A77C | 0.03
167 | U25A C34G A35G A47G U49A A75U | 0.1
